Read-outs that look alike come from different tables or passages of the source.
Columns and labels:
[1] = in vivo, cited from earlier work
[2] = system: HIV-1 patient viruses with protease V82A/F/S/T; format: cell-based; settings: for % with SQV FC > 2.5 / % with IDV FC > 2.5: V82A/F/S/T
[3] = system: HIV-1 patient viruses with protease V82 mutations; assay: Phenotypic susceptibility profiles of 270 patient virus samples with a mutation at position 82 (not 30 or 50); format: cell-based; settings: for mt % > 2.5 / mt % > 10: listed as 82: all samples with V82 mutations
[4] = system: HIV-1 patient viruses with protease V82A/F/S/T and L90M
[5] = number of secondary mutations 1
[6] = number of secondary mutations 2
[7] = number of secondary mutations 3
[8] = number of secondary mutations 4
[9] = number of secondary mutations 5
[10] = number of secondary mutations 6
[11] = number of secondary mutations 7

Cc1c(O)cccc1C(=O)N[C@@H](CSc1ccccc1)[C@H](O)CN1C[C@H]2CCCC[C@H]2C[C@H]1C(=O)NC(C)(C)C [nelfinavir]
oral bioavailability [1]: good oral bioavailability
drug levels in tissues [1]: high levels of the drug in mesenteric lymph nodes and the spleen

CC(C)(C)NC(=O)[C@@H]1C[C@@H]2CCCC[C@@H]2CN1C[C@@H](O)[C@H](Cc1ccccc1)NC(=O)[C@H](CC(N)=O)NC(=O)c1ccc2ccccc2n1 [saquinavir]
% FC > 2.5 ([2]; SQV, V82A/F/S/T + mutation at position 10): 40%
% FC > 2.5 ([2]; SQV, V82A/F/S/T + mutation at position 20): 80%
% FC > 2.5 ([2]; SQV, V82A/F/S/T + mutation at position 20, listed as SQV): 80%
% FC > 2.5 ([2]; SQV, V82A/F/S/T + mutation at position 24): 65%
% FC > 2.5 ([2]; SQV, V82A/F/S/T + mutation at position 36): 73%
% FC > 2.5 ([2]; SQV, V82A/F/S/T + mutation at position 36, listed as SQV): 73%
% FC > 2.5 ([2]; SQV, V82A/F/S/T + mutation at position 54): 47%
% FC > 2.5 ([2]; SQV, V82A/F/S/T + mutation at position 71): 52%
% FC > 2.5 ([2]; SQV, listed as 82: all virus with V82A/F/S/T): 27%
% with SQV FC > 2.5 [2, 5]: 27%
% with SQV FC > 2.5 [2, 6]: 30%
% with SQV FC > 2.5 [2, 7]: 39%
% with SQV FC > 2.5 [2, 8]: 50%
% with SQV FC > 2.5 [2, 9]: 60%
% with SQV FC > 2.5 [2, 10]: 76%
% with SQV FC > 2.5 [2, 11]: 60%
wt % > 2.5 ([3]; Saquinavir FC>2.5, V82 mutations, position 10 wild type): 23.9%
wt % > 2.5 ([3]; Saquinavir FC>2.5, V82 mutations, position 20 wild type): 53.1%
wt % > 2.5 ([3]; Saquinavir FC>2.5, V82 mutations, position 23 wild type): 60.5%
wt % > 2.5 ([3]; Saquinavir FC>2.5, V82 mutations, position 32 wild type): 64.1%
wt % > 2.5 ([3]; Saquinavir FC>2.5, V82 mutations, position 33 wild type): 59.2%
wt % > 2.5 ([3]; Saquinavir FC>2.5, V82 mutations, position 35 wild type): 55.6%
wt % > 2.5 ([3]; Saquinavir FC>2.5, V82 mutations, position 36 wild type): 53.5%
wt % > 2.5 ([3]; Saquinavir FC>2.5, V82 mutations, position 39 wild type): 62.6%
wt % > 2.5 ([3]; Saquinavir FC>2.5, V82 mutations, position 41 wild type): 56.3%
wt % > 2.5 ([3]; Saquinavir FC>2.5, V82 mutations, position 43 wild type): 59.1%
wt % > 2.5 ([3]; Saquinavir FC>2.5, V82 mutations, position 48 wild type): 56.4%
wt % > 2.5 ([3]; Saquinavir FC>2.5, V82 mutations, position 53 wild type): 58.1%
wt % > 2.5 ([3]; Saquinavir FC>2.5, V82 mutations, position 54 wild type): 32.9%
wt % > 2.5 ([3]; Saquinavir FC>2.5, V82 mutations, position 71 wild type): 34.9%
wt % > 2.5 ([3]; Saquinavir FC>2.5, V82 mutations, position 73 wild type): 59.1%
wt % > 2.5 ([3]; Saquinavir FC>2.5, V82 mutations, position 74 wild type): 59.4%
wt % > 2.5 ([3]; Saquinavir FC>2.5, V82 mutations, position 84 wild type): 55.8%
wt % > 2.5 ([3]; Saquinavir FC>2.5, V82 mutations, position 90 wild type): 41.0%
mt % > 2.5 ([3]; Saquinavir FC>2.5): 61.7%
wt % > 10 ([3]; Saquinavir FC>10, V82 mutations, position 10 wild type): 13.0%
wt % > 10 ([3]; Saquinavir FC>10, V82 mutations, position 20 wild type): 21.4%
wt % > 10 ([3]; Saquinavir FC>10, V82 mutations, position 23 wild type): 29.1%
wt % > 10 ([3]; Saquinavir FC>10, V82 mutations, position 32 wild type): 33.1%
wt % > 10 ([3]; Saquinavir FC>10, V82 mutations, position 33 wild type): 29.4%
wt % > 10 ([3]; Saquinavir FC>10, V82 mutations, position 35 wild type): 24.7%
wt % > 10 ([3]; Saquinavir FC>10, V82 mutations, position 36 wild type): 21.8%
wt % > 10 ([3]; Saquinavir FC>10, V82 mutations, position 41 wild type): 26.8%
wt % > 10 ([3]; Saquinavir FC>10, V82 mutations, position 46 wild type): 38.1%
wt % > 10 ([3]; Saquinavir FC>10, V82 mutations, position 48 wild type): 23.5%
wt % > 10 ([3]; Saquinavir FC>10, V82 mutations, position 53 wild type): 25.8%
wt % > 10 ([3]; Saquinavir FC>10, V82 mutations, position 54 wild type): 13.4%
wt % > 10 ([3]; Saquinavir FC>10, V82 mutations, position 60 wild type): 28.9%
wt % > 10 ([3]; Saquinavir FC>10, V82 mutations, position 62 wild type): 23.3%
wt % > 10 ([3]; Saquinavir FC>10, V82 mutations, position 71 wild type): 17.4%
wt % > 10 ([3]; Saquinavir FC>10, V82 mutations, position 74 wild type): 28.7%
wt % > 10 ([3]; Saquinavir FC>10, V82 mutations, position 84 wild type): 24.9%
wt % > 10 ([3]; Saquinavir FC>10, V82 mutations, position 90 wild type): 19.4%
mt % > 10 ([3]; Saquinavir FC>10): 31.2%

CC(C)(C)NC(=O)[C@@H]1CN(Cc2cccnc2)CCN1C[C@@H](O)C[C@@H](Cc1ccccc1)C(=O)N[C@H]1c2ccccc2C[C@H]1O [indinavir]
% FC > 2.5 ([2]; IDV, V82A/F/S/T + mutation at position 10): 83%
% FC > 2.5 ([2]; IDV, V82A/F/S/T + mutation at position 24): 100%
% FC > 2.5 ([2]; IDV, V82A/F/S/T + mutation at position 24, listed as IDV): 100%
% FC > 2.5 ([2]; IDV, V82A/F/S/T + mutation at position 46): 89%
% FC > 2.5 ([2]; IDV, V82A/F/S/T + mutation at position 54): 95%
% FC > 2.5 ([2]; IDV, V82A/F/S/T + mutation at position 63): 79%
% FC > 2.5 ([2]; IDV, V82A/F/S/T + mutation at position 71): 100%
% FC > 2.5 ([2]; IDV, V82A/F/S/T + mutation at position 71, listed as IDV): 100%
% FC > 2.5 ([2]; IDV, listed as 82: all virus with V82A/F/S/T and no other primary mutations): 77%
% with IDV FC > 2.5 [2, 5]: 77%
% with IDV FC > 2.5 [2, 6]: 82%
% with IDV FC > 2.5 [2, 7]: 88%
% with IDV FC > 2.5 [2, 8]: 95%
% with IDV FC > 2.5 [2, 9]: 96%
% with IDV FC > 2.5 [2, 10]: 100%
% with IDV FC > 2.5 [2, 11]: 100%
wt % > 2.5 ([3]; Indinavir FC>2.5, V82 mutations, position 10 wild type): 80.4%
wt % > 2.5 ([3]; Indinavir FC>2.5, V82 mutations, position 13 wild type): 95.7%
wt % > 2.5 ([3]; Indinavir FC>2.5, V82 mutations, position 20 wild type): 89.6%
wt % > 2.5 ([3]; Indinavir FC>2.5, V82 mutations, position 37 wild type): 95.1%
wt % > 2.5 ([3]; Indinavir FC>2.5, V82 mutations, position 45 wild type): 93.8%
wt % > 2.5 ([3]; Indinavir FC>2.5, V82 mutations, position 46 wild type): 87.6%
wt % > 2.5 ([3]; Indinavir FC>2.5, V82 mutations, position 54 wild type): 80.5%
wt % > 2.5 ([3]; Indinavir FC>2.5, V82 mutations, position 64 wild type): 93.9%
wt % > 2.5 ([3]; Indinavir FC>2.5, V82 mutations, position 71 wild type): 81.4%
wt % > 2.5 ([3]; Indinavir FC>2.5, V82 mutations, position 72 wild type): 90.7%
wt % > 2.5 ([3]; Indinavir FC>2.5, V82 mutations, position 84 wild type): 91.0%
wt % > 2.5 ([3]; Indinavir FC>2.5, V82 mutations, position 93 wild type): 89.1%
mt % > 2.5 ([3]; Indinavir FC>2.5): 92.2%
wt % > 10 ([3]; Indinavir FC>10, V82 mutations, position 10 wild type): 30.4%
wt % > 10 ([3]; Indinavir FC>10, V82 mutations, position 13 wild type): 62.2%
wt % > 10 ([3]; Indinavir FC>10, V82 mutations, position 20 wild type): 53.4%
wt % > 10 ([3]; Indinavir FC>10, V82 mutations, position 35 wild type): 53.6%
wt % > 10 ([3]; Indinavir FC>10, V82 mutations, position 36 wild type): 54.4%
wt % > 10 ([3]; Indinavir FC>10, V82 mutations, position 43 wild type): 57.6%
wt % > 10 ([3]; Indinavir FC>10, V82 mutations, position 48 wild type): 57.4%
wt % > 10 ([3]; Indinavir FC>10, V82 mutations, position 53 wild type): 57.8%
wt % > 10 ([3]; Indinavir FC>10, V82 mutations, position 54 wild type): 34.1%
wt % > 10 ([3]; Indinavir FC>10, V82 mutations, position 55 wild type): 58.0%
wt % > 10 ([3]; Indinavir FC>10, V82 mutations, position 71 wild type): 37.2%
wt % > 10 ([3]; Indinavir FC>10, V82 mutations, position 72 wild type): 56.5%
wt % > 10 ([3]; Indinavir FC>10, V82 mutations, position 73 wild type): 57.3%
wt % > 10 ([3]; Indinavir FC>10, V82 mutations, position 90 wild type): 45.9%
mt % > 10 ([3]; Indinavir FC>10): 60.0%
oral bioavailability [1]: enhanced

CC(C)c1nc(CN(C)C(=O)N[C@H](C(=O)N[C@@H](Cc2ccccc2)C[C@H](O)[C@H](Cc2ccccc2)NC(=O)OCc2cncs2)C(C)C)cs1 [ritonavir]
Percent of viruses with indicated primary mutation(s) with reduced susceptibility (fold change in IC50 > 2.5) ([3]; V82 mutations): 97.8%
Percent of viruses with indicated primary mutation(s) with reduced susceptibility (fold change in IC50 > 10) ([3]; V82 mutations): 89.3%
Percent of viruses with indicated primary mutation(s) which are drug sensitive (fold change in IC50 < 2.5) [4]: 3.0%

From patent US7138231B2 (priority 2000, dated 2006)
